{"source": "paper PMC4336329", "about": "(PLoS ONE, 2015)", "note": "Screen size: about 310,000 compounds; about 14,000 (4.5%) showed an effect of 50% or more. Effects have a minus sign here. The list shows a part of the results.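 Further: peak tail current of the secondary pulse compared with the same well before compound.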", "data": [{"molecular_target": "human ether-à-go-go-related gene (hERG) potassium channel (human, UniProt Q12809)", "sequence (Q12809 whole entry, looked up)": "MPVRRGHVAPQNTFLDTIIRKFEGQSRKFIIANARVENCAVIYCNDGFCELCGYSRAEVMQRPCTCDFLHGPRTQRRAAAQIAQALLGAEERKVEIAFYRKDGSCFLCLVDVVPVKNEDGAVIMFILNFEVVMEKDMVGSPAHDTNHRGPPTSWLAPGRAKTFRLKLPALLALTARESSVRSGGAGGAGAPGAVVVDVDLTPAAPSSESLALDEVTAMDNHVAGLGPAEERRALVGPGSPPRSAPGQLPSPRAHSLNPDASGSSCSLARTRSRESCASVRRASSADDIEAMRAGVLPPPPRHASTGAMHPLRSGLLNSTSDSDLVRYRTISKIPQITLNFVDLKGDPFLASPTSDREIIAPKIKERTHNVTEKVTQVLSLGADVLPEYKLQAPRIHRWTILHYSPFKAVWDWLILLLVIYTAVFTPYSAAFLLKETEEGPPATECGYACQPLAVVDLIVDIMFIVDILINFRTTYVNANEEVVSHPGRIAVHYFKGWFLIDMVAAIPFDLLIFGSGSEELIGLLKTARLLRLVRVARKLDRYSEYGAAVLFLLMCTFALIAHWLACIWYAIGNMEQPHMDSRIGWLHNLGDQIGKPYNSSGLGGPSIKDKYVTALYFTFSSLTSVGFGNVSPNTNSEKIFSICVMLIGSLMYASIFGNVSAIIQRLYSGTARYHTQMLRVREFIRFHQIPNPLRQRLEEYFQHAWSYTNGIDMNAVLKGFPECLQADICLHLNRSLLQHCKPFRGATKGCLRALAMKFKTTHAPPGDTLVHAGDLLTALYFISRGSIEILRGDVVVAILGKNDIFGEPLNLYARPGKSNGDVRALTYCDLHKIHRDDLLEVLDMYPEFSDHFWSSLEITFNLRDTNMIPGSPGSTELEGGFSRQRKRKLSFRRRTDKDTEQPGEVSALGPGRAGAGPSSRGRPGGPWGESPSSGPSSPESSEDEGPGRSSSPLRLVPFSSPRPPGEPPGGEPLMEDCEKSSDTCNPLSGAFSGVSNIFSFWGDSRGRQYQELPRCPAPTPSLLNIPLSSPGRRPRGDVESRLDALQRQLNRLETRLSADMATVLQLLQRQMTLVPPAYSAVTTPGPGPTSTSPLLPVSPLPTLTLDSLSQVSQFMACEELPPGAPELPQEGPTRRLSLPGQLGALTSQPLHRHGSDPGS", "experiment": "primary screen, population patch clamp on CHO cells stably expressing hERG", "units": {"hERG current change (%, negative = inhibition) at 10uM": "%"}, "values": [{"smiles": "O=[N+]([O-])c1cnc(Nc2ccccc2)nc1Nc1ccccc1", "hERG current change (%, negative = inhibition) at 10uM": 9.5}, {"smiles": "O=C(NCCN1CCOCC1)C1CCC(CNS(=O)(=O)c2ccc(Cl)cc2)CC1", "note": "(stereo not shown)", "hERG current change (%, negative = inhibition) at 10uM": 1.81}, {"smiles": "COc1ccc(OC)c(CCNC(=O)Cc2ccc(NC3=NC4CS(=O)(=O)CC4S3)cc2)c1", "note": "(stereo not shown)", "hERG current change (%, negative = inhibition) at 10uM": -6.43}, {"smiles": "O=C(NCc1ccc2[nH]c3c(c2c1)CCCC3)c1ccc(S(=O)(=O)N2CCCC2)cc1", "hERG current change (%, negative = inhibition) at 10uM": 7.54}, {"smiles": "CCCCNC(=O)CCN1N=C(c2ccccc2)CCC1=O", "hERG current change (%, negative = inhibition) at 10uM": -13}, {"smiles": "c1ccc(C2=Nc3cccc4cccc(c34)N2)cc1", "hERG current change (%, negative = inhibition) at 10uM": 0.595}, {"smiles": "COC(=O)C(=N/Nc1ccccc1C(=O)OC)/C(C)=N/O", "hERG current change (%, negative = inhibition) at 10uM": 16.8}, {"smiles": "O=C(Nc1cc(-c2nn(CC(=O)N3CCCCC3)c(=O)c3ccccc23)ccc1N1CCOCC1)c1ccc(Cl)cc1", "hERG current change (%, negative = inhibition) at 10uM": -52.6}, {"smiles": "Cc1cc(C)n(-c2ccc(C(=O)NCc3ccc4c(c3)OCO4)cc2)n1", "hERG current change (%, negative = inhibition) at 10uM": -30.2}, {"smiles": "Nc1c(C(=O)c2ccc(F)cc2)oc2ccccc12", "hERG current change (%, negative = inhibition) at 10uM": 1.53}, {"smiles": "COC(=O)C(Cc1ccccc1)NS(=O)(=O)c1ccccc1Br", "note": "(stereo not shown)", "hERG current change (%, negative = inhibition) at 10uM": -2.68}, {"smiles": "COCCCNc1nnc(Cc2ccc(Cl)cc2)c(=O)[nH]1", "hERG current change (%, negative = inhibition) at 10uM": 24.1}, {"smiles": "CCOC(=O)/C=c1\\sc2n(c1=O)CCN=2", "hERG current change (%, negative = inhibition) at 10uM": 12.7}, {"smiles": "CCc1cc2ccc(C)c(C)c2nc1SCC(=O)Nc1cc(C)on1", "hERG current change (%, negative = inhibition) at 10uM": 5.72}, {"smiles": "Cc1cc(C)n(CCCNC(=O)C(C)(C)Oc2ccc(Cl)cc2)n1", "hERG current change (%, negative = inhibition) at 10uM": -2.8}, {"smiles": "COCCCNC(=O)c1c(F)c(F)c(F)c(F)c1F", "hERG current change (%, negative = inhibition) at 10uM": 9.66}, {"smiles": "CCOc1cc(C(C(=O)NCC2CCCO2)N(C(=O)Cn2nnc3ccccc32)c2ccc(NC(C)=O)cc2)ccc1O", "note": "(stereo not shown)", "hERG current change (%, negative = inhibition) at 10uM": 11}, {"smiles": "Cc1ccc(NC(=O)CSc2n[nH]c(-c3ccccn3)n2)cc1", "hERG current change (%, negative = inhibition) at 10uM": -8.06}, {"smiles": "Cc1sc2ncnc(N3CCC(C(=O)N(C)CC(=O)Nc4ccccc4Cl)CC3)c2c1C", "hERG current change (%, negative = inhibition) at 10uM": -67.7}, {"smiles": "O=C(O)/C=C/c1cccc(OCc2ccccc2)c1", "hERG current change (%, negative = inhibition) at 10uM": 12.7}, {"smiles": "CN(Cc1cn(C)nc1-c1ccccc1F)Cc1nccn1C", "hERG current change (%, negative = inhibition) at 10uM": 29.5}, {"smiles": "Fc1ccc2[nH]c3c(c2c1)CN(C(=S)NCc1ccccc1)CC3", "hERG current change (%, negative = inhibition) at 10uM": 10.3}, {"smiles": "Fc1ccc2cnc(-c3ccccc3)c(-c3ccc(C(F)(F)F)cc3)c2c1", "hERG current change (%, negative = inhibition) at 10uM": 13.5}, {"smiles": "Cc1ccccc1C(=O)NC(=S)NC1CCS(=O)(=O)C1", "note": "(stereo not shown)", "hERG current change (%, negative = inhibition) at 10uM": 4.59}, {"smiles": "COc1ccc(C(=O)Nc2ccccc2C(=O)N2CCN(c3ccccc3)CC2)cc1", "hERG current change (%, negative = inhibition) at 10uM": 0.882}]}]}
